14 molecules from publication PMC12136788 can be followed below.

First the molecules themselves.
B1: ENSG00000198589:be:win_5451|CDS|ENSG00000198589|bound_else_gene|NA|bound_elsewhere_windowed (ssRNA)
RNA: GGGAGUUCUACAGUCCGACGAUCUUUUGCACCUUUUCUUUCUCGGACACUUUUGGGUAGCCAUGGACAAGAACUGCUUAUAGAAGGAACAAGUCUGGUUUGCAUGAAGUCGAGUAGUUCAGUUGUGGAAUUGGUUAUGCUACUCAACAGAGGAUUGAGCAUCA
B2: chrX:152971868:152971969:+|3pUTR|ENSG00000147394|unk|FALSE|unique (ssRNA)
RNA: GGGAGUUCUACAGUCCGACGAUCUUCCCUUACAGGUAUGUUGGCAUGUGUUGGAAAAUUUACACAAUUAGGUUUAAAUUCAGUAGGAUGUGAUUUUAGGAUGCUACUGAUCAAAGUGAUAUCUGUGUCUGUUGGAAUCUUGAUCAACAGAGGAUUGAGCAUCA
B3: chr11:95166718:95166819:-|3pUTR|ENSG00000149212|unk|FALSE|unique (ssRNA)
RNA: GGGAGUUCUACAGUCCGACGAUCACAGUUUCCCCUUCCUCUUUCUCUUCACAUUUACUCUUUUCAACCCAAAAUAAGAGACAUAGAAAGCAAACCACAGCCAGUUUGGCAUCUUCUCAGUGCUACUAGUAUAGGCACAUACACCAACAGAGGAUUGAGCAUCA
B4: chr15:60347444:60347559:-|3pUTR|ENSG00000182718|msi1_unk|FALSE|overlapping (ssRNA)
RNA: GGGAGUUCUACAGUCCGACGAUCUAACAGUCCCCGUGGCCAUCCCUGUGAGGGUGACGUUAGCAUUACCCCCAACCUCAUUUUAGUUGCCUAAGCAUUGCCUGGCCUUCCUGUCUAGUCUCUCCUGUAAGCCAAAGAAAUGAACAACAGAGGAUUGAGCAUCA
B5: chr14:54957033:54957204:-|CDS|ENSG00000198554|control|control|control (ssRNA)
RNA: GGGAGUUCUACAGUCCGACGAUCGCACGUUCAACUAAUAUUUUAGACAAUAUGGGCAAAUCAUCCAAGAAAUCCACUGCACUUAGUCGAACUACAAAUAAUGAAAAGUCUCCCAUUAUAAAGCCUCUGAUUCCAAAGCCGAAGCAACAGAGGAUUGAGCAUCA
B6: chr18:55226207:55226308:-|3pUTR|ENSG00000196628|unk|total|mutant (ssRNA)
RNA: GGGAGUUCUACAGUCCGACGAUCAUUUUUACAGCCACACAAUUCUUGGCAUGUAUUAAGAAAAAAAAAAAUCCCUGUUCAAGCCGUUUUUCCACCUAUCAGCACUGAGUAAAUGCCAUAAAUCCAUUGAAAUGGUCUAAAUGUCAACAGAGGAUUGAGCAUCA
B7: chr10:113876644:113876745:+|CDS|ENSG00000196865|msi1|total|mutant (ssRNA)
RNA: GGGAGUUCUACAGUCCGACGAUCGGUUAAUGAUGCAGAUGCCAGCCUUUGGCAAGAACCCGAAGUUUCCUGCUGGCCAACUCCCGUCAUACUUGGACCUCGUGGAAACAUGUUGUUUUCUUUGAUUGGAGAGGGACACAAAGACAACAGAGGAUUGAGCAUCA
B8: chr18:3066806:3067261:-|three_prime_utr|ENSG00000101605|control|control|control (ssRNA)
RNA: GGGAGUUCUACAGUCCGACGAUCAUGACACUUUAAUUGUUUUUCUUUAUCUACAAAAUUAUGUGUUAAGAAAAUACCAUUCAUAGCAUGAAGAUUAGGAAACAGUUUUAAGGAGAAGACUUGAAUGAAGUUGGAGGGACAUUGCAACAGAGGAUUGAGCAUCA
B9: chr2:70656783:70663424:-|three_prime_utr|ENSG00000075340|control|control|control (ssRNA)
RNA: GGGAGUUCUACAGUCCGACGAUCUCUCUCCUCCCCUUCCCUUCUCCCAUCUCUGUCCCUGCAAGCACAGGGCUAAGGAGGGAUAGAGUAGGACCCUGGACCACAUUCGGAAGGGGAACUUAGAGAUCACCCGACCAACCCUUCCAACAGAGGAUUGAGCAUCA
B10: chr13:32775312:32775413:+|3pUTR|ENSG00000083642|unk|total|mutant (ssRNA)
RNA: GGGAGUUCUACAGUCCGACGAUCGAAACUUGUAAAUAUCUUUUUUCUUUUUUUUAAUGUUUCUGAUUUCUGAAGUGCUUGUACCGCUUUUAUCUGCGGCUUUAAACUGACAGUACCCGACUGUUUAUUGGAUCUAUUGAUUUGCAACAGAGGAUUGAGCAUCA
B11: ENSG00000107863:be:win_6101|3pUTR|ENSG00000107863|bound_else_gene|NA|bound_elsewhere_windowed (ssRNA)
RNA: GGGAGUUCUACAGUCCGACGAUCGCAAGGUAUUUGUUGCAACUUACUACAUAGCAUAUACCCAAAAUCACUGAAGAAAAUCGCUGGCAUCAGUGUGCAGCAAAUUUGUUCUUUUGGUUUCAUCACUAACAAAAGUGCCUCAUCCAACAGAGGAUUGAGCAUCA
B12: chr1:66363429:66363538:+|CDS|ENSG00000184588|unk|FALSE|bound_elsewhere (ssRNA)
RNA: GGGAGUUCUACAGUCCGACGAUCAGACCUCCUAAAGACAUUCAGAAUCUCAUCUGACACAUUUAUAACCUACAUGAUGACUUUAGAAGACCAUUACCAUUCUGACGUGGCAUAUCACAACAGCCUGCACGCUGCUGAUGUAGCCAACAGAGGAUUGAGCAUCA
B13: chr12:101746137:101746238:-|3pUTR|ENSG00000111670|msi1|total|mutant (ssRNA)
RNA: GGGAGUUCUACAGUCCGACGAUCGGUCCGUAAAUUAUUGCAGGCCACCUGUGUCUUUGUCAUACAUUCUUCUUGCUGUUGUUCCGUUUGUUUUUUUUCAAACAACCCUCUAAAAAUGUAAAAACCAUGUUCCGCUUGCAGCUGCAACAGAGGAUUGAGCAUCA
B14: chr9:88475159:88475277:+|CDS|ENSG00000106723|unk|FALSE|bound_elsewhere (ssRNA)
RNA: GGGAGUUCUACAGUCCGACGAUCACAAGUGGAAUAUGCCAAAGAAGAUGGCUCGAAAAGGACUGGCAUGGUCAUUCAUCAAGUAGAAGCCAAGCCCUCCGUCUAUUUCAUCAAGUUUGAUGAUGAUUUCCAUAUUUAUGUCUACAACAGAGGAUUGAGCAUCA

This is one part of the list.

For this experiment, the target named is T1, UNK ZnF1-6 (called full-length) (human, UniProt Q9C0B0 30-357).
T1 sequence: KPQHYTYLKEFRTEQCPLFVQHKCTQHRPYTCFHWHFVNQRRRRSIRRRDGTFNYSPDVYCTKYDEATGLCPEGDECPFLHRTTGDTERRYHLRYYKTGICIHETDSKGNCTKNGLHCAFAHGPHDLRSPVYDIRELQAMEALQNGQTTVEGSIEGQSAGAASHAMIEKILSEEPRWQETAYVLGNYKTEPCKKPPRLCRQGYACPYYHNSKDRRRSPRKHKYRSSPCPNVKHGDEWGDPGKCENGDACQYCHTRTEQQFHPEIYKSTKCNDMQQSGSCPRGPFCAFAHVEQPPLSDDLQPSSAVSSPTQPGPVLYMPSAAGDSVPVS
The experiment can be described thus: nsRBNS (natural sequence RNA bind-n-seq); RBNS binding buffer (assumed for nsRBNS): 25 mM Tris pH 7.5, 150 mM KCl, 3 mM MgCl2, 0.01% Triton X-100, 500 ug/ml BSA, 20 U/ml SUPERase-In, 4 C; UNK is unkempt and MSI1 is Musashi-1; names of the RNAs are library labels; protein concentration not given here; high values mean tight binding.
Turning to B1, the binding signal was 0.579 enrichment R.

The molecule B2 gave a binding signal of 1.17 enrichment R.

Take B3: the binding signal was found to be 1.07 enrichment R.

The molecule B4 registered a binding signal of 1.57 enrichment R.

The molecule B5 had a binding signal of 1.02 enrichment R.

As for B6, the binding signal amounted to 0.431 enrichment R.

In turn, B7 had a binding signal of 0.577 enrichment R.

With B8, the binding signal was 0.704 enrichment R.

As to B9, the binding signal amounted to 0.546 enrichment R.

Molecule B10 gave a binding signal of 1.13 enrichment R.

Molecule B11 yielded a binding signal of 0.567 enrichment R.

With B12, the binding signal was determined as 0.653 enrichment R.

B13 showed a binding signal of 0.424 enrichment R.

Molecule B14 gave a binding signal of 0.549 enrichment R.
